# The source gives no read counts; variants with many changes may rest on few reads.
# B1: CPEB3 Ribozyme (parent)
# chain: UAACAGGGGGCCACAGCAGAAGCGUUCACGUCGCAGCCCCUGUCAGAUUCUGGUGAAUCUGCGAAUUCUGCUGUAUAUCUC
# Variants of: B1
# Experiment: self-cleavage, relative activity (ratio to wild type); higher = more cleavage; in vitro, sequencing
# Summary of the method: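 Libraries of CPEB3 self-cleaving ribozyme mutants came from rounds of error-prone PCR and carried barcodes, which DNA sequencing matched to variants. In vitro transcription used T7 RNA polymerase at 37°C for 5 hours, with a further 15 min in DNase I before EDTA stopped the reaction; the ribozymes cleaved during both steps. The RNA was reverse transcribed with template switching and sequenced on Illumina. Relative activity is the cleaved/total read fraction of a variant divided by that of the unmutated ribozyme, averaged over three batches with at least 5 reads.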
row,Variant,self-cleavage
1,G9A U31C U41A U69C U78C,0.04
2,G9A A35U U43A A47G U49C U60C A64U,0.04
3,G9A U31C U58A U67A U72C,0.11
4,G8A G10A U43A G55C,0.1
5,G9U A35U A57U A64G,0.08
6,G9A U41A U78C,0.39
7,G8A C14A U41A,0.15
8,G8U U49A U69A,0.18
9,G8U A13G A15U A45U U48C U51C A64G,0.06
10,G8A U60C U67C G73U C79A,0
11,G8U A13G C40U U49A U51C U72C U80C,0.15
12,G9C U41C A64G A75U U78A,0.04
13,G9U A28G A56U,0.17
14,G8U A15G U41C U43C G52C A64G,0.06
15,G9A A21G C44U U72C U74C,0.05
16,G9A G10C A47U U72C,0.05
17,G8A G10U A15G U66C U72C,0.04
18,G8A U26A A28G U66A U74A,0.05
19,G8A U25C U43C U49A,0.06
20,G8A U26C C34U C62G,0.04
21,G9C A18G U26C C27A A56G U67A,0.04
22,G8C G19A A57G U69G,0.18
23,G9A A45C U72A,0.12
24,G9U A15G A20G U26C A28G U72A,0.05

row,Variant,self-cleavage
1,G9U A28G U80C,0.15
2,G9A A35G C71A U80C,0.31
3,G9A A20G A28G A35G U43C A56U U74A,0.01
4,G8C A15G A21G A47G U51A U58A U60C,0.06
5,G8A G10A U51C U54C,0.05
6,G9A U31A U48G U54C A64U U76C,0.12
7,G8A G16C A20G U25A A77U U78C,0.03
8,G8A U49A A56G U58A,0.07
9,G8A A56G C62A U67A,0.06
10,G9C C12U A15G U72C,0.4
11,G8C C12U A20C G36A U67C,0.07
12,G8A C39U U41C U48C U49C,0.13
13,G9A U41C A56U,0.2
14,G9A A15G A57G U67G U78C,0.08
15,G8A U48C A75U,0.08
16,G8U G22A A35G U49C,0.11
17,G9A C17G U41A U67G U80C,0.06
18,G8A C14A A15G A35U A57G,0.05
19,G8A G19U A20U G36A U41C A64G U76C,0.03
20,G8U U69A U72A,0.1
21,G8U U54C U58A,0.07
22,G9C A13C A45U U48C U49C U69A,0.32
23,G9A U26A A45C,0.17
24,G8C G30A U78C,0.33

row,Variant,self-cleavage
1,G8A G22A U54C U69C G70C,0.06
2,G8C A28G G30A U31A U69A,0.06
3,G8A G33U A45C A56G U72C,0.09
4,G8U A13U A35U U67C U72C,0.05
5,G8U A45G C50U U58C U78C,0.07
6,G8C U48C U54A U58C U69A,0.1
7,G9A C11G C37U A57U U78C,0.04
8,G8A U48C U51A,0.25
9,G8U C11U U48C A57G,0.06
10,G8U A13G A18U U31A U72C U76C,0.04
11,G8U U25C A45G A47G U78C U80A,0.04
12,G8U A21U U41C A47G,0.12
13,G9A C17G U41A U80C,0.15
14,G8A U26A A56G,0.34
15,G9A U41A A45G U69C,0.11
16,G9A U41C A47C U48C A64G U66C U69C,0.25
17,G9C U31C A56G,0.25
18,G8U A15U A20U U25A,0.06
19,G9U A20G A35U U60C,0.18
20,G8U C17G A18G U51C A64C C71A U74C,0.03
21,G9A A13G U25A A35U A75U,0.09
22,G9U A13U A15G A18G U60A G73A U80G,0.4
23,G9A A21G U49C U72C,0.24
24,G9U A21G U26C U31A A45G,0.12

row,Variant,self-cleavage
1,G9A C23U U49C C68U A77U,0.05
2,G8U A28G U31A A35U U54A U74A U76C,0.04
3,G8A C29A A35G U49C,0.06
4,G9A A18U C50U C59U,0.03
5,G8A C27A C40U U80A,0.15
6,G9A U54C A65U,0.05
7,G9A C11G A57G,0.09
8,G9C U54G U72C,0.08
9,G8U U66A A77G,0.4
10,G8A U26C A35U U49C U72A U74C,0.04
11,G9U A21G U25C G30U,0.16
12,G8C U43C U66G U67G,0.16
13,G8A C11G C39U U54C A77U,0.08
14,G9A A18G A21G C32A,0.27
15,G9A G24A A56G A65G,0.09
16,G9U A28U A47G U58A U72A,0.04
17,G8A U48C U66A U76C U80A,0.04
18,G8A C14G A21G U31G C37U U67C,0.05
19,G9U A20G U51A U69C U76C,0.18
20,G9A A20G A57U,0.33
21,G9A A18G A20G C40U U78C,0.07
22,G9A C12G U26A U43A A47G U72A,0.04
23,G8C U26C A64G,0.07
24,G8A U26A A47U A56U,0.34

row,Variant,self-cleavage
1,G8U G30C U54C,0.09
2,G9A U26A A64G,0.05
3,G9A G24A U48C C62A A65U U69A U72C,0.03
4,G9A G42A U72C,0.42
5,G8U A15G A21C A35G G52C U74C U80C,0.05
6,G8U A13U U48C U60C U67C A75U,0.05
7,G8A U25C U67A,0.09
8,G9U A13U G19A U26G U41A C50U,0.05
9,G8U U25A U51G G61C C62U,0.06
10,G9A A15U A28G U41A A47U,0.05
11,G9A U26C U49C U74C,0.09
12,G9A G19U U31C A57C U80C,0.05
13,G9C A35C U67C U72A U78C,0.1
14,G9U A56G U69A U72C A77U,0.03
15,G8U U25A A45U U54A U72C,0.08
16,G9A C29A U31C U41C A64G U80C,0.06
17,G8U C40U U78C,0.06
18,G9A A18U A21G U41C A57G U67C A75G,0.04
19,G8A C11A A20G A56G U66C A77U,0.1
20,G9A G53A U69C,0.19
21,G9C U54A A57G U60C U69C,0.12
22,G9A U25C C29U U80A,0.27
23,G9A A20G C32U U41C,0.21
24,G9A A21G U41A A65G,0.04

row,Variant,self-cleavage
1,G8U C11A A13G,0.06
2,G9A U26C U66C,0.31
3,G9A U26A U67C U78A,0.05
4,G9U C11G U66G,0.07
5,G8U A57G U60A C62U,0.14
6,G8U U31C A35G,0.17
7,G9U A21G U41C,0.09
8,G9A A18U C29U U31A C37G C40U,0.04
9,G8U C11U U31C U41C U49A,0.18
10,G9U A18G A20G A64U U66C,0.05
11,G8A C34U C50U U54C,0.12
12,G8A U31A U58G U60C U67C A75G,0.03
13,G8A G30A A64U U69A,0.05
14,G9A A65G U72C,0.08
15,G9A U48A U80C,0.09
16,G8U A13G C17U C34G A47G U51A U67C,0.03
17,G8A G10C C23G A56G U67C U69A G70U,0.04
18,G9A A20G U26G A57G,0.08
19,G9A A28U U49C,0.27
20,G9C G16C U41C U54C A64G U74A,0.04
21,G9A A13U U41C,0.29
22,G8C A21G U41A,0.4
23,G8U U54C A57G,0.32
24,G8A G9C U26A C32U U51G A56U U67C,0.05

row,Variant,self-cleavage
1,G9A U25C G42A U48A U60A U69A,0.04
2,G8A U25C A45G U54A,0.62
3,G8C A20G A47G U49A U69C,0.14
4,G9A A20G U67C G73A,0.76
5,G8A U31C A47G U67G U72G,0.03
6,G9A A13C U41A A56U,0.29
7,G8A C23G U60A U67C U72A U78A,0.04
8,G8A C40G C50A,0.06
9,G9A G19C A20U A35U U69C A77G U80A,0.03
10,G9C G52A A64U,0.13
11,G9A A15G A65G A75U,0.07
12,G9A C12G A18U U31C G33A U51A U80C,0.03
13,G9C U26A C34A U51G U72A C81U,0.03
14,G9C G30C A35G U49C U69A U72A,0.04
15,G9A C29G U54C U78C,0.16
16,G9A A45G G52A U58C,0.13
17,G8A C11A U41C U54C U66C,0.05
18,G8A C12U A20U U72C,0.04
19,G8A U26C C32U U51A,0.08
20,G9C A28G G36C,0.04
21,G8U U31C U48C U54C U69C,0.05
22,G8A U54C A56U C59A U69C U72C U80C,0.06
23,G8U A21G U60C C62G U74A U80G,0.03

# From the RNAGym collection of RNA variant scans (doi:10.1093/nar/gkz1192)
